Experimental data published in PubChem BioAssay AID2147 (National Center for Advancing Translational Sciences (NCATS), 2009).
The campaign covered roughly 230,000 compounds. About 3,600 (1.6%) were called active. This list was built around the results that the source calls inconclusive (neither active nor inactive); the mix of calls is not that of the screen. Calls come from the whole dose curve; as a rule, active = well fitted inhibition curve with a large enough effect (not every such curve was filed as active); inconclusive = small, poorly fitted or top-dose-only effect, or another doubt; inactive = no such curve, though single readings can be large or run the other way. Potencies beside an inconclusive call are fits to weak or partial responses and may not hold up.

The compounds below were run against Lysine-specific demethylase 4E (Homo sapiens) (UniProt B2RXH2) (assay: qHTS Assay for Inhibitors of Human Jumonji Domain Containing 2E (JMJD2E)). Conditions: JMJD2E catalytic domain, FDH-coupled NADH fluorescence (FDH is formaldehyde dehydrogenase); series mostly up to 57.1 µM.
Sequence of UniProt B2RXH2 (B2RXH2 whole entry, looked up, the tested form may be a part): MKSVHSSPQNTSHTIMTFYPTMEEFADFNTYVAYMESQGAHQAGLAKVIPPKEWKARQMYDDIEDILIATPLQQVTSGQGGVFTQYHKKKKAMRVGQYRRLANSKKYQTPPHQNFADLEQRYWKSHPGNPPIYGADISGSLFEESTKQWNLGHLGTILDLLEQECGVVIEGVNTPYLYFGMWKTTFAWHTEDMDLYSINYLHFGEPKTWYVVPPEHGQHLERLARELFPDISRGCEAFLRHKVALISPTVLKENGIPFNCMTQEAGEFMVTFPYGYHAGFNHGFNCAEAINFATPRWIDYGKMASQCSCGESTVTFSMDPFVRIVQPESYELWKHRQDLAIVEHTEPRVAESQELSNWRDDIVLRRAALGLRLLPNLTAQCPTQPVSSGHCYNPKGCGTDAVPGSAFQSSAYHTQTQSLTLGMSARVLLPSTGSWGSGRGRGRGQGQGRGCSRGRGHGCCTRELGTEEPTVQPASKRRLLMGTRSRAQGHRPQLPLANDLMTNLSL
Note: nearly all actives have a fitted effect of over 50% in size.
Potency is the fitted concentration of half-maximal effect; tags give direction and shape of the fitted curve.

| SMILES | Potency |
| --- | --- |
| CCOc1ccccc1NC(=O)c1ccc(Cl)c(NC(=O)CC(c2ccccc2)c2ccccc2)c1 | inconclusive: 39.8 µM [inhibitor, single point] |
| COc1ccc(CC(=O)Nc2cccc(-c3cn4ccccc4n3)c2)cc1 | inconclusive: 31.6 µM [inhibitor, partial curve] |
| Nc1nccc(/C=C/c2c(Cl)cccc2Cl)n1 | inconclusive: 25.1 µM [inhibitor, partial curve] |
| Cn1c(=O)[nH]c(=O)c2c1nc([N+](=O)[O-])n2Cc1ccccc1 | inconclusive: 39.8 µM [inhibitor, single point] |
| O=C(COC(=O)c1cccc2ccccc12)Nc1cccnc1Cl | inconclusive: 28.2 µM [inhibitor, partial curve] |
| COc1ccccc1OCC(=O)Nc1nonc1NC(=O)COc1ccccc1OC | inactive |
| Cc1c(C)c2ccc(OCc3ccc(C(=O)O)o3)c(C)c2oc1=O | inconclusive: 20 µM [inhibitor, partial curve] |
| Cc1ccc(NC(=S)Nc2ccc3cn[nH]c3c2)cc1C | inconclusive: 28.2 µM [inhibitor, partial curve] |
| C/C(=N\Nc1ccc2nncn2n1)c1ccccn1 | active: 10 µM |
| CC(=O)Nc1sc(-c2ccc(Cl)cc2)nc1-c1ccccc1 | inconclusive: 17.8 µM [inhibitor, partial curve] |
| N=c1ccn(CC(=O)c2ccc(-c3ccccc3)cc2)cc1 | inconclusive: 31.6 µM [inhibitor, partial curve] |
| COc1ccc(NC(=O)COc2ccc(-c3nn(C)c(=O)c4ccccc34)cc2)cc1 | inconclusive: 39.8 µM [inhibitor, single point] |
| CCCn1c(/C=N/Nc2nc3ccccc3[nH]2)nc2ccccc21 | inconclusive: 39.8 µM [inhibitor, single point] |
| O=C(O)c1[nH]c2ccccc2c1C=NCc1ccccc1Cl | inconclusive: 35.5 µM [inhibitor, single point] |
| Cc1nn(-c2ccccc2)c2c1C1(C(=O)N3c4c(cccc41)C(C)CC3(C)C)C(C#N)=C(N)O2 (stereo not drawn) | inconclusive: 39.8 µM [inhibitor, single point] |
| CCOc1ccccc1-c1cc(-c2ccc(OC)cc2)nc2c1c(=O)n(C)c(=O)n2C | inconclusive: 35.5 µM [inhibitor, single point] |
| O=C(O)C1CC=CCC1C(=O)NC1CCCCC1 (stereo not drawn) | inconclusive: 28.2 µM [inhibitor, partial curve] |
| O=C(C(=O)N1CCOCC1)c1c[nH]c2ccccc12 | inconclusive: 0.126 µM [inhibitor, partial curve] |
